# Screen size: about 310,000 compounds; about 2,200 (0.71%) showed an effect of 50% or more. The effect is printed as a negative number. Some of the results follow.
# Molecular target: human ether-à-go-go-related gene (hERG) potassium channel (human, UniProt Q12809)
# Assay: primary screen, population patch clamp on CHO cells stably expressing hERG
# Sequence of human ether-à-go-go-related gene (hERG) potassium channel (Q12809 whole entry, looked up): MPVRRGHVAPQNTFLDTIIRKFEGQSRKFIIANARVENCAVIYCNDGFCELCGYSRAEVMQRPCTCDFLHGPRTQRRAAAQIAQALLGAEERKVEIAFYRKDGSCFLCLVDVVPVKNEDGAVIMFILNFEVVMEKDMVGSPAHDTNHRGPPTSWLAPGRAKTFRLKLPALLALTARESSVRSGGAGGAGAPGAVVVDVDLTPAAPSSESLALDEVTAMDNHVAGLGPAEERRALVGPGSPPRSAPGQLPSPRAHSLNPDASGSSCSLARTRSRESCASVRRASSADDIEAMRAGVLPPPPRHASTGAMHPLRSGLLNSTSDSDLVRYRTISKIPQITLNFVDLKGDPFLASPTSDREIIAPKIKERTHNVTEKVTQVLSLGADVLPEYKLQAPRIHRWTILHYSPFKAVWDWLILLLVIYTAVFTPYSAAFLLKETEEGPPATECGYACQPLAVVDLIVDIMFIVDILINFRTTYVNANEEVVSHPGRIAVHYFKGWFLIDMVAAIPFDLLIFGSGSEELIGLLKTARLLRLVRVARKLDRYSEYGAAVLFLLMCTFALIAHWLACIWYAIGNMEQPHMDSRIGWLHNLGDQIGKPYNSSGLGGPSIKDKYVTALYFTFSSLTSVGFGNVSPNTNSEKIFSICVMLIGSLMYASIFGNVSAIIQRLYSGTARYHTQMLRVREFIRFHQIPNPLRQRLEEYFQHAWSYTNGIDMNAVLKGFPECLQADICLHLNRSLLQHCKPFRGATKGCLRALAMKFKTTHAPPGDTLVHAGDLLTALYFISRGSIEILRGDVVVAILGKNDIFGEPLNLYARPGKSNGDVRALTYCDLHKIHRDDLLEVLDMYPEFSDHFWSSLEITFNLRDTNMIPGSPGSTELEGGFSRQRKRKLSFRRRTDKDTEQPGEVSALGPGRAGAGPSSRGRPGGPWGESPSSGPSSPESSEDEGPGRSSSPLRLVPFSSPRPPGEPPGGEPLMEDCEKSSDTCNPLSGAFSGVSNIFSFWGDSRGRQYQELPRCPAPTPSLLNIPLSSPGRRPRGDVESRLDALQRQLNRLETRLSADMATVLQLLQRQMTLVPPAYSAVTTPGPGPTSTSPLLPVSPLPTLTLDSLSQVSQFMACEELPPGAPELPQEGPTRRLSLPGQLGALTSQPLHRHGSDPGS
row,Compound,"hERG current change (%, negative = inhibition) at 1uM"
1,Cc1ccc(S(=O)(=O)NCCC(=O)NCc2ccc3c(c2)OCO3)cc1C,1.37%
2,Cc1cc(NC(=O)c2cc(CC(C)C)on2)no1,14.3%
3,Nc1nc2c(ncn2CCC(CO)CO)c(=O)[nH]1,2.46%
4,CN(CC(N)=O)S(=O)(=O)c1ccc(F)cc1,-11.8%
5,Cc1cc(NC(=S)NC(=O)/C=C/c2ccc(S(=O)(=O)N3CCOCC3)cc2)ccc1Br,15.8%
6,O=C(c1coc2ccccc2c1=O)N1CCN(c2cccc(C(F)(F)F)c2)CC1,2.03%
7,Cc1ccc(Cl)cc1NS(=O)(=O)c1cc2[nH]c(=O)c(=O)[nH]c2cc1C,12.3%
8,COC(=O)COc1ccc2c(-c3cccc([N+](=O)[O-])c3)cc(=O)oc2c1,-2.05%
9,COc1ccc(N2CCN(C(=O)C(NC(=O)c3c(F)cccc3F)C(C)C)CC2)cc1 (stereo not drawn),8.88%
10,CC(C)NC(=O)c1ccccc1NC(=O)CCS(=O)(=O)Cc1ccccc1,4.55%
11,CCN1CCN(C(=O)c2nn(-c3ccc(OC)cc3)c(=O)c3c2c2ccccc2n3C)CC1,5.88%
12,CCc1nnc(NC(=O)c2csc3c2CCC(C)C3)s1 (stereo not drawn),0.835%
13,COc1ccc(Cl)cc1C(=O)Nc1ccc(NC(=O)C(C)C)cc1,126%
14,CCC(=O)Nc1ccc(C(=O)CSc2nnc(-c3cccnc3)o2)cc1,4.01%
15,CCSC1=C(C#N)C(c2ccc(OC)c(OC)c2)CC(=O)N1 (stereo not drawn),10.7%
16,CC(=O)c1sc(NC(=O)c2ccccc2F)nc1-c1ccccc1,10.7%
17,CC(C)c1nnc(NC(=O)CSc2nc3ccccc3[nH]2)s1,12.4%
18,Cc1ccc(Cn2c(O)c(N=NC(=S)Nc3ccccc3F)c3ccccc32)cc1,16.7%
19,COc1ccc(CCNC(=O)c2oc3ccccc3c2C)cc1,5.41%
20,COc1ccc(OC)c(CN2CCC(CNC(=O)Nc3cccc(Cl)c3)CC2)c1,-26.3%
21,Cc1noc(C)c1COc1ccccc1C(=O)N1CCN(S(=O)(=O)c2cccc([N+](=O)[O-])c2)CC1,-1.43%
22,COc1ccc(NC(=O)CSc2nnc(-c3ccccc3Cl)n2Cc2ccco2)c(OC)c1,0.435%
23,O=C(CNc1n[nH]c(=O)[nH]c1=O)N/N=C/C1CC=CCC1 (stereo not drawn),3.87%

row,Compound,"hERG current change (%, negative = inhibition) at 1uM"
1,CCn1c(CNC(=O)c2ccco2)nnc1SCC(=O)Nc1cc(C)c(C)cc1Br,3.54%
2,Cl.OC(c1ccc(F)cc1)(C1CCCCC1)C(CN1CCOCC1)c1ccccc1 (stereo not drawn),12.9%
3,Cn1ccnc1C(=O)c1ccc(S(=O)(=O)N2CCCC2)cc1,16.4%
4,COc1cc2[nH]c(=S)nc(NCCC(C)C)c2cc1OC,13.8%
5,Cc1ccc(C(=O)Nc2ccccc2N2CCCCC2)cc1,9.06%
6,CC(=O)c1cccc(NC(=S)N2CCC(Cc3ccccc3)CC2)c1,17.3%
7,COc1cccc2c(=O)n(CC(=O)NCCc3ccccc3)ccc12,10.7%
8,Cc1cc(C)c(S(=O)(=O)N2CCCCC2C(=O)O)c(C)c1 (stereo not drawn),10.8%
9,COCCNC(=O)C1CC(c2cccc(OC)c2)=NO1 (stereo not drawn),-0.278%
10,Oc1[nH]c2ccccc2c1C1=NCCCC1,15.9%
11,CCOC(=O)C(NC(=O)c1ccccc1)(OCC1(CC)COC1)C(F)(F)F (stereo not drawn),-2.89%
12,CC(=O)NC(C1C(=O)CC(C)(C)CC1=O)(C(F)(F)F)C(F)(F)F,7.21%
13,Cc1ccc(-c2nc(C)sc2CC(=O)Nc2cccc(C)c2C)cc1,4.47%
14,COc1cc(OC)nc(NC2OC(=O)c3ccccc32)n1 (stereo not drawn),9.28%
15,COC(=O)C(Cc1ccc(O)cc1)NC(=O)C12CC3CC(CC(C3)C1)C2 (stereo not drawn),15.2%
16,CC(C)(C)c1ccc(C(=O)N2CCC3(CC2)NCCc2[nH]cnc23)cc1,9.93%
17,COC(=O)c1c(C(=O)OC)c(-c2ccccc2)n2c1CCC2,5.69%
18,O=S(=O)(Nc1ccc(C(F)(F)F)cc1)c1cnc[nH]1,13.1%
19,Cc1ccc(S(=O)(=O)CC(=O)N2CCCC2)cc1,3.78%
20,COc1ccc(OC)c(S(=O)(=O)N2Cc3ccccc3CC2C(=O)O)c1 (stereo not drawn),2.8%
21,CC(C)OC(=O)CSc1nnc(-c2cnccn2)n1-c1ccc(Cl)cc1,-1.22%
22,Cc1cc(C)c2nc(C(F)(F)F)c(C#N)c(N)c2c1,10.6%
